Test results published in patent US11951108B2, “Combination therapy for treating cancer” (Epizyme, Inc., priority 2016, dated 2024).

How the values were obtained:
MDA-MB-436 = assay: In vitro combination study, breast cancer cell line MDA-MB-436; format: cell-based; conditions: ER/PR −/−, HER2 −, 7 day pre-treatment + 6 day co-treatment
CAMA-1 = assay: In vitro combination study, breast cancer cell line CAMA-1; format: cell-based; conditions: ER/PR +/−, HER2 +, 7 day pre-treatment + 6 day co-treatment
CAOV-3 = assay: In vitro combination study, ovarian cancer cell line CAOV-3; format: cell-based; conditions: 4+3 model
HCC70 = conditions: ER/PR −/−, 7 day pre-treatment + 6 day co-treatment
COV504 = conditions: 4+3 model
BT-20 = assay: In vitro combination study, breast cancer cell line BT-20; conditions: ER/PR −/−, HER2 −, 7 day pre-treatment + 6 day co-treatment
ES-2 = assay: In vitro combination study, ovarian cancer cell line ES-2; conditions: 4+3 model
ZR-75-1 = assay: In vitro combination study, breast cancer cell line ZR-75-1; conditions: ER/PR +/+, HER2 +, 7 day pre-treatment + 6 day co-treatment
SKOV3 [1] = assay: In vitro combination study, ovarian cancer cell line SKOV3; conditions: 4+3 model
A2780 [2] = assay: In vitro combination study, ovarian cancer cell line A2780; conditions: 4+3 model
HCC1143 = assay: In vitro combination study, breast cancer cell line HCC1143; conditions: ER/PR −/−, HER2 −, 7 day pre-treatment + 6 day co-treatment
JH)S-4 [3] = assay: In vitro combination study, ovarian cancer cell line JH)S-4; conditions: 4+3 model
SNU840 = assay: In vitro combination study, ovarian cancer cell line SNU840; conditions: 4+3 model
MDA-MB-468 = assay: In vitro combination study, breast cancer cell line MDA-MB-468; conditions: ER/PR −/−, HER2 −, 7 day pre-treatment + 6 day co-treatment
HCC1954 = assay: In vitro combination study, breast cancer cell line HCC1954; format: cell-based; conditions: ER/PR −/−, HER2 +, 7 day pre-treatment + 6 day co-treatment
BT549 = assay: In vitro combination study, breast cancer cell line BT549; conditions: ER/PR −/−, HER2 −, 7 day pre-treatment + 6 day co-treatment
SUM159PT = assay: In vitro combination study, breast cancer cell line SUM159PT; conditions: ER/PR −/−, HER2 −, 7 day pre-treatment + 6 day co-treatment
HCC1806 = assay: In vitro combination study, breast cancer cell line HCC1806; format: cell-based; conditions: ER/PR −/−, HER2 −, 7 day pre-treatment + 6 day co-treatment
OVCAR-3 = assay: In vitro combination study, ovarian cancer cell line OVCAR-3; format: cell-based; conditions: 4+3 model
COV434 = conditions: 4+3 model
OV-90 = assay: In vitro combination study, ovarian cancer cell line OV-90; conditions: 4+3 model
OVMANA = assay: In vitro combination study, ovarian cancer cell line OVMANA; conditions: 4+3 model
TOV112D = assay: In vitro combination study, ovarian cancer cell line TOV112D; conditions: 4+3 model
KURAMOCHI = assay: In vitro combination study, ovarian cancer cell line KURAMOCHI; conditions: 4+3 model
OAW42 = assay: In vitro combination study, ovarian cancer cell line OAW42; conditions: 4+3 model
SK-BR-3 = assay: In vitro combination study, breast cancer cell line SK-BR-3; format: cell-based; conditions: ER/PR −/−, HER2 +, 7 day pre-treatment + 6 day co-treatment
DU4475 = assay: In vitro combination study, breast cancer cell line DU4475; conditions: ER/PR −/−, HER2 −, 7 day pre-treatment + 6 day co-treatment
HCC1419 = assay: In vitro combination study, breast cancer cell line HCC1419; conditions: ER/PR −/−, HER2 +, 7 day pre-treatment + 6 day co-treatment
JH)S-4 [4] = test system: JH)S-4
SKOV3 [5] = test system: SKOV3
A2780 [6] = test system: A2780

CC(=O)Nc1cccc(-n2c(=O)n(C3CC3)c(=O)c3c(Nc4ccc(I)cc4F)n(C)c(=O)c(C)c32)c1 [Trametinib]
Synergy or antagonism of second agent with tazemetostat (IC50 shift of second agent) (MDA-MB-436): C (Synergy > 2× IC50 shift) | Synergy or antagonism of second agent with tazemetostat (IC50 shift of second agent) (CAMA-1): B (Synergy > 4× IC50 shift) | Synergy or antagonism of second agent with tazemetostat (IC50 shift of second agent) (CAOV-3): B (Synergy > 4× IC50 shift) | Synergy or antagonism of second agent with tazemetostat (IC50 shift of second agent) (HCC70): C (Synergy > 2× IC50 shift) | Synergy or antagonism of second agent with tazemetostat (IC50 shift of second agent) (COV504): B (Synergy > 4× IC50 shift) | Synergy or antagonism of second agent with tazemetostat (IC50 shift of second agent) (BT-20): C (Synergy > 2× IC50 shift) | Synergy or antagonism of second agent with tazemetostat (IC50 shift of second agent) (ES-2): C (Synergy > 2× IC50 shift) | Synergy or antagonism of second agent with tazemetostat (IC50 shift of second agent) (ZR-75-1): B (Synergy > 4× IC50 shift) | Synergy or antagonism of second agent with tazemetostat (IC50 shift of second agent) (SKOV3 [1]): C (Synergy > 2× IC50 shift) | Synergy or antagonism of second agent with tazemetostat (IC50 shift of second agent) (A2780 [2]): B (Synergy > 4× IC50 shift) | Synergy or antagonism of second agent with tazemetostat (IC50 shift of second agent) (HCC1143): C (Synergy > 2× IC50 shift) | Synergy or antagonism of second agent with tazemetostat (IC50 shift of second agent) (JH)S-4 [3]): C (Synergy > 2× IC50 shift) | Synergy or antagonism of second agent with tazemetostat (IC50 shift of second agent) (SNU840): B (Synergy > 4× IC50 shift) | Synergy or antagonism of second agent with tazemetostat (IC50 shift of second agent) (MDA-MB-468): C (Synergy > 2× IC50 shift)

N.N.[Cl][Pt][Cl] [Cisplatin]
Synergy or antagonism of second agent with tazemetostat (IC50 shift of second agent) (HCC1954): C (Synergy > 2× IC50 shift) | Synergy or antagonism of second agent with tazemetostat (IC50 shift of second agent) (BT549): C (Synergy > 2× IC50 shift) | Synergy or antagonism of second agent with tazemetostat (IC50 shift of second agent) (ZR-75-1): A (Antagonism) | Synergy or antagonism of second agent with tazemetostat (IC50 shift of second agent) (SUM159PT): C (Synergy > 2× IC50 shift) | Synergy or antagonism of second agent with tazemetostat (IC50 shift of second agent) (MDA-MB-468): C (Synergy > 2× IC50 shift)

CC#C[C@]1(O)CC[C@H]2[C@@H]3CCC4=CC(=O)CCC4=C3[C@@H](c3ccc(N(C)C)cc3)C[C@@]21C [Mifepristone]
Synergy or antagonism of second agent with tazemetostat (IC50 shift of second agent) (HCC1806): C (Synergy > 2× IC50 shift)

Nc1ccccc1NC(=O)c1ccc(CNC(=O)OCc2cccnc2)cc1 [Entinostat]
Synergy or antagonism of second agent with tazemetostat (IC50 shift of second agent) (OVCAR-3): C (Synergy > 2× IC50 shift) | Synergy or antagonism of second agent with tazemetostat (IC50 shift of second agent) (COV504): C (Synergy > 2× IC50 shift) | Synergy or antagonism of second agent with tazemetostat (IC50 shift of second agent) (COV434): C (Synergy > 2× IC50 shift) | Synergy or antagonism of second agent with tazemetostat (IC50 shift of second agent) (OV-90): C (Synergy > 2× IC50 shift) | Synergy or antagonism of second agent with tazemetostat (IC50 shift of second agent) (SKOV3 [1]): C (Synergy > 2× IC50 shift) | Synergy or antagonism of second agent with tazemetostat (IC50 shift of second agent) (OVMANA): C (Synergy > 2× IC50 shift) | Synergy or antagonism of second agent with tazemetostat (IC50 shift of second agent) (TOV112D): C (Synergy > 2× IC50 shift) | Synergy or antagonism of second agent with tazemetostat (IC50 shift of second agent) (KURAMOCHI): B (Synergy > 4× IC50 shift)

CC(=O)O[C@@]12CO[C@@H]1C[C@H](O)[C@@]1(C)C(=O)[C@H](O)C3=C(C)[C@@H](OC(=O)[C@H](O)[C@@H](NC(=O)OC(C)(C)C)c4ccccc4)C[C@@](O)([C@@H](OC(=O)c4ccccc4)[C@H]21)C3(C)C [Docetaxel]
Synergy or antagonism of second agent with tazemetostat (IC50 shift of second agent) (ES-2): C (Synergy > 2× IC50 shift) | Synergy or antagonism of second agent with tazemetostat (IC50 shift of second agent) (OAW42): C (Synergy > 2× IC50 shift) | Synergy or antagonism of second agent with tazemetostat (IC50 shift of second agent) (SKOV3 [1]): B (Synergy > 4× IC50 shift) | Synergy or antagonism of second agent with tazemetostat (IC50 shift of second agent) (JH)S-4 [3]): C (Synergy > 2× IC50 shift) | Synergy or antagonism of second agent with tazemetostat (IC50 shift of second agent) (TOV112D): C (Synergy > 2× IC50 shift)

NC1(c2ccc(-c3nc4ccn5c(=O)[nH]nc5c4cc3-c3ccccc3)cc2)CCC1 [MK2206]
Synergy or antagonism of second agent with tazemetostat (IC50 shift of second agent) (SK-BR-3): C (Synergy > 2× IC50 shift) | Synergy or antagonism of second agent with tazemetostat (IC50 shift of second agent) (DU4475): B (Synergy > 4× IC50 shift) | Synergy or antagonism of second agent with tazemetostat (IC50 shift of second agent) (A2780 [2]): B (Synergy > 4× IC50 shift) | Synergy or antagonism of second agent with tazemetostat (IC50 shift of second agent) (HCC1143): C (Synergy > 2× IC50 shift) | Synergy or antagonism of second agent with tazemetostat (IC50 shift of second agent) (HCC1419): C (Synergy > 2× IC50 shift) | Synergy or antagonism of second agent with tazemetostat (IC50 shift of second agent) (SNU840): B (Synergy > 4× IC50 shift) | Synergy or antagonism of second agent with tazemetostat (IC50 shift of second agent) (SUM159PT): B (Synergy > 4× IC50 shift) | Synergy or antagonism of second agent with tazemetostat (IC50 shift of second agent) (KURAMOCHI): B (Synergy > 4× IC50 shift)

CC[C@@]1(O)C(=O)OCc2c1cc1n(c2=O)Cc2cc3c(CN(C)C)c(O)ccc3nc2-1 [Topotecan]
Synergy or antagonism of second agent with tazemetostat (IC50 shift of second agent) (JH)S-4 [4]): C (key: B: Synergy > 4× IC50 shift; Synergy > 2× IC50 shift; No Effect; Antagonism; X: Not Tested) | Synergy or antagonism of second agent with tazemetostat (IC50 shift of second agent) (COV504): C (Synergy > 2× IC50 shift) | Synergy or antagonism of second agent with tazemetostat (IC50 shift of second agent) (SKOV3 [5]): C (key: B: Synergy > 4× IC50 shift; Synergy > 2× IC50 shift; No Effect; Antagonism; X: Not Tested) | Synergy or antagonism of second agent with tazemetostat (IC50 shift of second agent) (A2780 [6]): B (key: B: Synergy > 4× IC50 shift; Synergy > 2× IC50 shift; No Effect; Antagonism; X: Not Tested) | Synergy or antagonism of second agent with tazemetostat (IC50 shift of second agent) (KURAMOCHI): C (Synergy > 2× IC50 shift)

Like-named read-outs stand apart in the source and are kept apart here.
